The list shows a part of the results. The list includes weakly bound sequences.

This note sets out measurements from publication PMC12820563.

This test concerns the target T1, MBP-FoxP3dN (UniProt Q99JB6).
T1 sequence: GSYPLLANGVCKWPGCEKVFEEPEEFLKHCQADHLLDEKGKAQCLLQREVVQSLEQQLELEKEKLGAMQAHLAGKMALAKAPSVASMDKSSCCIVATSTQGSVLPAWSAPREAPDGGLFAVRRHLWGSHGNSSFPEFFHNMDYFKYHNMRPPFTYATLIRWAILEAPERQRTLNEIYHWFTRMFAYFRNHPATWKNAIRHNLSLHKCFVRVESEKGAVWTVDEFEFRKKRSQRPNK
As to the kind of experiment: PD-seq (MBP pull-down with sequencing). Conditions: 20 mM Tris-HCl pH 7.5, 100 mM NaCl, 1.5 mM MgCl2, 0.4 uM protein, 0.1 uM dsDNA library, 30 min, room temperature, amylose pull-down; high values mean tight binding; double strand, one strand shown.
Regarding “GATGATTGTTCTCCCAGCTGATGAATTCAGCGACTCGAGTAAACAAATTTTCCTAATCTTTCTGTTCAAGCGCCATCTAC”, the binding signal (RPM ratio (pull-down/input)) worked out at 1.51.

Take “GATGATTGTTCTCCCAGCTGATGAATTATGTCGGTCGAGTAAACAAATTTTCCTAATCTTTCTGTTCAAGCGCCATCTAC”: the binding signal (RPM ratio (pull-down/input)) came to 0.673.

As for “GATGATTGTTCTCCCAGCTGATGAATTCTGTGTGTCGAGTAAACAAATTTTCCTAATCTTTCTGTTCAAGCGCCATCTAC”, the binding signal (RPM ratio (pull-down/input)) is 3.92.

Turning to “GATGATTGTTCTCCCAGCTGATGAATTGTTCTGGTCGAGTAAACAAATTTTCCTAATCTTTCTGTTCAAGCGCCATCTAC”, the binding signal (RPM ratio (pull-down/input)) amounted to 0.274.

As to “GATGATTGTTCTCCCAGCTGATGAATTTCGGCCATCGAGTAAACAAATTTTCCTAATCTTTCTGTTCAAGCGCCATCTAC”, the binding signal (RPM ratio (pull-down/input)) was 1.2.

Turning to “GATGATTGTTCTCCCAGCTGATGAATTGTATACATCGAGTAAACAAATTTTCCTAATCTTTCTGTTCAAGCGCCATCTAC”, the binding signal (RPM ratio (pull-down/input)) came to 5.87.

On to “GATGATTGTTCTCCCAGCTGATGAATTGCACCGGTCGAGTAAACAAATTTTCCTAATCTTTCTGTTCAAGCGCCATCTAC”, for which the binding signal (RPM ratio (pull-down/input)) was 0.58.

“GATGATTGTTCTCCCAGCTGATGAATTCCATTTGTCGAGTAAACAAATTTTCCTAATCTTTCTGTTCAAGCGCCATCTAC”: the binding signal (RPM ratio (pull-down/input)) worked out at 1.53.

For “GATGATTGTTCTCCCAGCTGATGAATTGCAAGGATCGAGTAAACAAATTTTCCTAATCTTTCTGTTCAAGCGCCATCTAC”, the binding signal (RPM ratio (pull-down/input)) amounted to 0.518.

On to “GATGATTGTTCTCCCAGCTGATGAATTCAGGGTATCGAGTAAACAAATTTTCCTAATCTTTCTGTTCAAGCGCCATCTAC”, for which the binding signal (RPM ratio (pull-down/input)) is 0.611.

As for “GATGATTGTTCTCCCAGCTGATGAATTCGGACTATCGAGTAAACAAATTTTCCTAATCTTTCTGTTCAAGCGCCATCTAC”, the binding signal (RPM ratio (pull-down/input)) stood at 0.499.

Consider “GATGATTGTTCTCCCAGCTGATGAATTATTCGTCTCGAGTAAACAAATTTTCCTAATCTTTCTGTTCAAGCGCCATCTAC”, for which the binding signal (RPM ratio (pull-down/input)) is 0.385.

On to “GATGATTGTTCTCCCAGCTGATGAATTTCATGCGTCGAGTAAACAAATTTTCCTAATCTTTCTGTTCAAGCGCCATCTAC”, for which the binding signal (RPM ratio (pull-down/input)) came out at 0.678.

As to “GATGATTGTTCTCCCAGCTGATGAATTCTCAGTCTCGAGTAAACAAATTTTCCTAATCTTTCTGTTCAAGCGCCATCTAC”, the binding signal (RPM ratio (pull-down/input)) was determined as 0.273.

“GATGATTGTTCTCCCAGCTGATGAATTTATTAACTCGAGTAAACAAATTTTCCTAATCTTTCTGTTCAAGCGCCATCTAC”: the binding signal (RPM ratio (pull-down/input)) turned out to be 1.28.

In the case of “GATGATTGTTCTCCCAGCTGATGAATTTATCCGGTCGAGTAAACAAATTTTCCTAATCTTTCTGTTCAAGCGCCATCTAC”, the binding signal (RPM ratio (pull-down/input)) was 0.325.

“GATGATTGTTCTCCCAGCTGATGAATTCCAATTTTCGAGTAAACAAATTTTCCTAATCTTTCTGTTCAAGCGCCATCTAC”: the binding signal (RPM ratio (pull-down/input)) is 0.344.

As for “GATGATTGTTCTCCCAGCTGATGAATTCCTGATTTCGAGTAAACAAATTTTCCTAATCTTTCTGTTCAAGCGCCATCTAC”, the binding signal (RPM ratio (pull-down/input)) is 0.402.

In the case of “GATGATTGTTCTCCCAGCTGATGAATTATACGTTTCGAGTAAACAAATTTTCCTAATCTTTCTGTTCAAGCGCCATCTAC”, the binding signal (RPM ratio (pull-down/input)) is 0.671.

On to “GATGATTGTTCTCCCAGCTGATGAATTGGAGCCATCGAGTAAACAAATTTTCCTAATCTTTCTGTTCAAGCGCCATCTAC”, for which the binding signal (RPM ratio (pull-down/input)) was found to be 1.01.

Take “GATGATTGTTCTCCCAGCTGATGAATTGCCTGGGTCGAGTAAACAAATTTTCCTAATCTTTCTGTTCAAGCGCCATCTAC”: the binding signal (RPM ratio (pull-down/input)) came out at 0.902.

Regarding “GATGATTGTTCTCCCAGCTGATGAATTTTGTCGATCGAGTAAACAAATTTTCCTAATCTTTCTGTTCAAGCGCCATCTAC”, the binding signal (RPM ratio (pull-down/input)) came out at 1.18.

Regarding “GATGATTGTTCTCCCAGCTGATGAATTATAGTCTTCGAGTAAACAAATTTTCCTAATCTTTCTGTTCAAGCGCCATCTAC”, the binding signal (RPM ratio (pull-down/input)) worked out at 0.529.

Turning to “GATGATTGTTCTCCCAGCTGATGAATTGGGCCACTCGAGTAAACAAATTTTCCTAATCTTTCTGTTCAAGCGCCATCTAC”, the binding signal (RPM ratio (pull-down/input)) was determined as 4.45.

As to “GATGATTGTTCTCCCAGCTGATGAATTGGACAACTCGAGTAAACAAATTTTCCTAATCTTTCTGTTCAAGCGCCATCTAC”, the binding signal (RPM ratio (pull-down/input)) was 0.378.

“GATGATTGTTCTCCCAGCTGATGAATTCCCAGGGTCGAGTAAACAAATTTTCCTAATCTTTCTGTTCAAGCGCCATCTAC”: the binding signal (RPM ratio (pull-down/input)) was 0.173.

For the sequence “GATGATTGTTCTCCCAGCTGATGAATTGGATGGTTCGAGTAAACAAATTTTCCTAATCTTTCTGTTCAAGCGCCATCTAC”, the binding signal (RPM ratio (pull-down/input)) was determined as 0.894.

For “GATGATTGTTCTCCCAGCTGATGAATTGGACAAGTCGAGTAAACAAATTTTCCTAATCTTTCTGTTCAAGCGCCATCTAC”, the binding signal (RPM ratio (pull-down/input)) was determined as 0.191.

Take “GATGATTGTTCTCCCAGCTGATGAATTCGACTCTTCGAGTAAACAAATTTTCCTAATCTTTCTGTTCAAGCGCCATCTAC”: the binding signal (RPM ratio (pull-down/input)) was 0.539.

Regarding “GATGATTGTTCTCCCAGCTGATGAATTTGTATGGTCGAGTAAACAAATTTTCCTAATCTTTCTGTTCAAGCGCCATCTAC”, the binding signal (RPM ratio (pull-down/input)) was determined as 6.04.

As to “GATGATTGTTCTCCCAGCTGATGAATTCTCTGGCTCGAGTAAACAAATTTTCCTAATCTTTCTGTTCAAGCGCCATCTAC”, the binding signal (RPM ratio (pull-down/input)) is 0.173.
